Some of the results follow. Many values rest on one well or one pass, so single values are uncertain.
Assays:
Test in all cases: cell count relative to DMSO control; melanoma cells; higher = more viable cells
Settings in all cases: library dose: standard library concentration; 72 h
SkMel28 = test system: SkMel28
SkMel2 = test system: SkMel2
SkMel30 = test system: SkMel30
SkMel5 = test system: SkMel5
UACC257 = test system: UACC257
UACC62 = test system: UACC62
WM115 = test system: WM115
WM1716 = test system: WM1716
WM1745 = test system: WM1745
WM3526 = test system: WM3526
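Note: cells treated in 1,536-well plates, then fixed and DAPI-stained, with nuclei counted from automated high-throughput microscope images.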

| SMILES | cell count (SkMel28) | cell count (SkMel2) | cell count (SkMel30) | cell count (SkMel5) | cell count (UACC257) | cell count (UACC62) | cell count (WM115) | cell count (WM1716) | cell count (WM1745) | cell count (WM3526) |
| --- | --- | --- | --- | --- | --- | --- | --- | --- | --- | --- |
| C[C@@H](Oc1cc(-c2cnn(C3CCNCC3)c2)cnc1N)c1c(Cl)ccc(F)c1Cl [Crizotinib] + NCC(=O)Nc1ccc(-n2nc(C(F)(F)F)cc2-c2ccc3c(ccc4ccccc43)c2)cc1 [OSU03012] (first compound 1 µM, partner dose 5 µM) | 23.7% | 36.8% | 28.9% | 52% | 94.8% | 41.9% | 65.1% | 81.2% | 51.1% | 45.9% |
| CS(=O)(=O)CCNCc1ccc(-c2ccc3ncnc(Nc4ccc(OCc5cccc(F)c5)c(Cl)c4)c3c2)o1 [lapatinib] + CN(C)S(=O)(=O)c1ccc2c(c1)/C(=C/c1cc3c([nH]1)CCCC3)C(=O)N2 [SU6656] (first compound 4 µM, partner dose 2 µM) | 71.9% | 90.2% | 76.9% | 43% | 101% | 57.6% | 45.3% | 53.7% | 55.2% | 57.9% |
| C[C@@H](Oc1cc(-c2cnn(C3CCNCC3)c2)cnc1N)c1c(Cl)ccc(F)c1Cl [Crizotinib] + COc1cc2c(Oc3ccc4[nH]c(C)cc4c3F)ncnc2cc1OCCCN1CCCC1 [cediranib] (first compound 1 µM, partner dose 2 µM) | 70.2% | 87.3% | 84% | 49.3% | 77.6% | 59.8% | 53.1% | 70.9% | 71.6% | 73.3% |
| C[C@@H](Oc1cc(-c2cnn(C3CCNCC3)c2)cnc1N)c1c(Cl)ccc(F)c1Cl [Crizotinib] + CN1CCN(c2ccc3nc(-c4c(N)c5c(F)cccc5[nH]c4=O)[nH]c3c2)CC1 [Dovitinib] (first compound 1 µM, partner dose 0.5 µM) | 50.8% | 61.3% | 98% | 59% | 68.2% | 71.7% | 46.3% | 64.7% | 39.5% | 72.9% |
| C[C@@H](Oc1cc(-c2cnn(C3CCNCC3)c2)cnc1N)c1c(Cl)ccc(F)c1Cl [Crizotinib] + Cn1c(Nc2ccc(C(F)(F)F)cc2)nc2cc(Oc3ccnc(-c4ncc(C(F)(F)F)[nH]4)c3)ccc21 [CHIR265] (first compound 1 µM, partner dose 0.4 µM) | 30% | 45.8% | 61.8% | 31.6% | 79% | 49.1% | 31.5% | 79.1% | 38.8% | 48.6% |
| C=CCNC1=C2C[C@@H](C)C[C@H](OC)[C@H](O)[C@@H](C)/C=C(\C)[C@H](OC(N)=O)[C@@H](OC)/C=C\C=C(/C)C(=O)NC(=CC1=O)C2=O [Tanespimycin] + CC(=O)c1c(C)c2cnc(Nc3ccc(N4CCNCC4)cn3)nc2n(C2CCCC2)c1=O [palbociclib] (first compound 0.01 µM, partner dose 0.2 µM) | 36.3% | 61.1% | 59.5% | 45.2% | 69% | 36.9% | 25.4% | 33.5% | 54.5% | 39.8% |
| C=CCNC1=C2C[C@@H](C)C[C@H](OC)[C@H](O)[C@@H](C)/C=C(\C)[C@H](OC(N)=O)[C@@H](OC)/C=C\C=C(/C)C(=O)NC(=CC1=O)C2=O [Tanespimycin] + OCc1c[nH]c2ccccc12 [Indole-3-carbinol] (first compound 0.01 µM, partner dose 4 µM) | 57.6% | 79.1% | 100% | 72.6% | 96.5% | 78.5% | 26.6% | 87.7% | 52.2% | 80.2% |
| C=CCNC1=C2C[C@@H](C)C[C@H](OC)[C@H](O)[C@@H](C)/C=C(\C)[C@H](OC(N)=O)[C@@H](OC)/C=C\C=C(/C)C(=O)NC(=CC1=O)C2=O [Tanespimycin] + C[C@]1(c2nc3c(C(N)=O)cccc3[nH]2)CCCN1 [Veliparib] (first compound 0.01 µM, partner dose 7 µM) | 32.8% | 82.3% | 83.4% | 87.3% | 102% | 48.5% | 27.6% | 73.7% | 66.1% | 69.7% |
| C[C@@H](Oc1cc(-c2cnn(C3CCNCC3)c2)cnc1N)c1c(Cl)ccc(F)c1Cl [Crizotinib] + CN(C)S(=O)(=O)c1ccc2c(c1)/C(=C/c1cc3c([nH]1)CCCC3)C(=O)N2 [SU6656] (first compound 1 µM, partner dose 2 µM) | 44.1% | 60.3% | 82.4% | 52.6% | 58.6% | 60.8% | 37.3% | 53.6% | 43.3% | 68.6% |
| CNC(=O)c1cc(Oc2ccc(NC(=O)Nc3ccc(Cl)c(C(F)(F)F)c3)cc2)ccn1 [sorafenib] + Nc1ccn([C@@H]2O[C@H](CO)[C@@H](O)C2(F)F)c(=O)n1 [gemcitabine] (first compound 2 µM, partner dose 0.002 µM) | 124% | 87.1% | 119% | 84.8% | 94% | 88.4% | 90.3% | 75.4% | 52.4% | 85% |

Source: the supplement of paper PMC4604168 (melanoma cell lines)
